Source: paper PMC4336329 (PLoS ONE, 2015)
The whole screen tested about 310,000 compounds, of which about 14,000 (4.5%) showed an effect of 50% or more. Effects have a minus sign here. This is one part of the list.

target: human ether-à-go-go-related gene (hERG) potassium channel (human, UniProt Q12809); assay: primary screen, population patch clamp on CHO cells stably expressing hERG
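Also: peak tail current of the secondary pulse compared with the same well before compound.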

Sequence of human ether-à-go-go-related gene (hERG) potassium channel (Q12809 whole entry, looked up): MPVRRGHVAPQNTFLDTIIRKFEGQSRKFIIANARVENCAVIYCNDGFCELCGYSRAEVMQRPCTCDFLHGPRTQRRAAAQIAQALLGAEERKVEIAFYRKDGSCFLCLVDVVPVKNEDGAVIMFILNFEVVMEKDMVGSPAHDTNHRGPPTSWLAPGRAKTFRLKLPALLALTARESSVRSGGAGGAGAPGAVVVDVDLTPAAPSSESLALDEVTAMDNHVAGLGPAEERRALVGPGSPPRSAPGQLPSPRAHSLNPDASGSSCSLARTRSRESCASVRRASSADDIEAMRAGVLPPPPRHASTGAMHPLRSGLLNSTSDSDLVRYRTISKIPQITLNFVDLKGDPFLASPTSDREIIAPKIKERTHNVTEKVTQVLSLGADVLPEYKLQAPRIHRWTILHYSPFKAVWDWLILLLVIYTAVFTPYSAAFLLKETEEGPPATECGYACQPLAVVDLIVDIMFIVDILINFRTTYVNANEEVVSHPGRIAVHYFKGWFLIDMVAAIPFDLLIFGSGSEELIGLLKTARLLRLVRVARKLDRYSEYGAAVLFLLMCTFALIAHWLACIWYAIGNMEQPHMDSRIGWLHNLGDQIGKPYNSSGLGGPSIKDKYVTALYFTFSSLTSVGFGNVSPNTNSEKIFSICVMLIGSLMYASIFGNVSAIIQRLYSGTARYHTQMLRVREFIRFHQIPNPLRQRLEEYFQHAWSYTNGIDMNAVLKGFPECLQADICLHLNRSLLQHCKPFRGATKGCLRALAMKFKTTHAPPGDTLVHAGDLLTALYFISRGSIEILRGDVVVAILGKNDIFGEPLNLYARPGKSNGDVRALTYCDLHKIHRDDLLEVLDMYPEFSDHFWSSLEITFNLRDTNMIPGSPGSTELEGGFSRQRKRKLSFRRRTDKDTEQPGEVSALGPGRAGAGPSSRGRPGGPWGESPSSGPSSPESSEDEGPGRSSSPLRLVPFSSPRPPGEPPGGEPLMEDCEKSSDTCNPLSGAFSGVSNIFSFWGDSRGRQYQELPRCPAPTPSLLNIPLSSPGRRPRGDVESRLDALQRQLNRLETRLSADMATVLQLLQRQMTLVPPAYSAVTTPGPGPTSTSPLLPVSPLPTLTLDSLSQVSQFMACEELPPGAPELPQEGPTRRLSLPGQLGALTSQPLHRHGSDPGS

SMILES	hERG current change (%, negative = inhibition) at 10uM
O=C(Cc1cccs1)NCCS(=O)(=O)N1CCN(c2cccc(Cl)c2)CC1	-28.4%
COc1ccc(C2Nc3ccccc3C(=O)N2C2CCCCC2)cc1 (stereo not shown)	-1.76%
Cc1cc(C)cc(C(=O)Nc2nnc(SCC(=O)NCC3CCCO3)s2)c1 (stereo not shown)	10.2%
COc1ccc(NC(=O)CN2C(=O)NC(c3ccccc3)(c3ccccc3)C2=O)cc1	-55%
COc1ccc(C(=O)NNC(=S)NC(=O)/C=C/c2cccs2)cc1	7.81%
CN(C)S(=O)(=O)c1cccc(COC(=O)CN2CCCCCC2=O)c1	9.49%
O=C(CN1CCN(c2ccccn2)CC1)N1c2ccccc2CCc2ccccc21.O=C(O)C(=O)O	-19.1%
O=C(O)Cc1sc(NC2CCCCC2)nc1-c1ccc(Cl)cc1	14.2%
COc1c(Br)cc(Br)cc1C(=O)Nc1ccccc1N1CCCC1	27.3%
COc1ccc(OC)c(CCNC(=O)CCc2cn(C)c3ccccc23)c1	-2.8%
N#CCC(=O)Nc1ccc(C(=O)N2CCN(S(=O)(=O)c3ccc4ccccc4c3)CC2)cc1	6.47%
Cc1onc(-c2ccccc2Cl)c1C(=O)Nc1nnc(Cc2ccc(Cl)cc2)s1	5.68%
O=C(NCCCCO)C(F)(F)C(F)(F)C(F)(F)C(=O)NCCCCO	20.1%
Brc1ccccc1-c1nnc(CSc2nnnn2-c2ccccc2)o1	-13.1%
CCOCCCNC(=O)C(NC(=O)Cc1c[nH]c2ccccc12)c1ccc(OC)cc1 (stereo not shown)	10.2%
CCOc1ccc(-n2cnnn2)cc1S(=O)(=O)N1CCC(C)CC1C (stereo not shown)	-19.7%
NS(=O)(=O)c1ccc(NC(=S)Nc2ccn(Cc3cccc4ccccc34)n2)cc1	15.8%
CC(NS(=O)(=O)c1ccc(OCC(=O)N2CCOCC2)cc1)c1ccccc1 (stereo not shown)	16.7%
O=S(=O)(NCCCNS(=O)(=O)c1c(F)cccc1F)c1ccc2c(c1)OCCO2	-3.98%
O=C(Cc1cc(=O)[nH][nH]1)N/N=C/c1ccccc1[N+](=O)[O-]	-0.969%
CCOc1ccc(S(=O)(=O)N2CCN(CN3C(=O)CC4(CCCC4)C3=O)CC2)cc1	-8.79%
CCCC(=O)NC(c1ccccc1)c1ccc2cccnc2c1O (stereo not shown)	-15.3%

SMILES	hERG current change (%, negative = inhibition) at 10uM
O=C(O)c1cc(Nc2nc(N3CCOCC3)nc(N3CCOCC3)n2)ccc1Cl	4.39%
Cc1ccc(/C(O)=C2\C(=O)C(=O)N(C)C2c2cccc([N+](=O)[O-])c2)cc1 (stereo not shown)	16.4%
COc1ccc(S(=O)(=O)N2CCC(C(=O)NCc3ccccn3)CC2)cc1C	-2.08%
O=C(CN(Cc1ccc(Cl)c(Cl)c1)S(=O)(=O)c1ccccc1)N/N=C\c1ccc2c(c1)OCO2	-7.64%
Cc1ccc(S(=O)(=O)CCC(=O)Nc2nc3c(s2)CCCC3)cc1	-1.29%
CC(=O)Nc1ccc(NC(=O)c2cc([N+](=O)[O-])cc([N+](=O)[O-])c2)cc1	22.5%
Nc1nnc(CC2=CCCCC2)s1	13.7%
Cc1ccc(NC(=O)C(C)SCc2nc3sc(C)c(C)c3c(=O)[nH]2)nc1 (stereo not shown)	-10.7%
COc1ccc(C2C(C#N)=C(N)Oc3cccc(O)c32)cc1 (stereo not shown)	13.1%
CC(C)C(C)NC(=O)COc1ccc(S(=O)(=O)N2CCOCC2)cc1Cl (stereo not shown)	3.61%
CCN1C(=O)C(=C2C=C(C)OC(C)=C2)C(=O)N(CC)C1=S	13.2%
Cc1cccn2c(=O)c(/C=C(\C#N)S(=O)(=O)c3ccccc3)c(N3CCN(c4ccccc4)CC3)nc12	9.12%
CCn1c(SCc2ccc(F)cc2)nnc1C1CCN(S(=O)(=O)c2ccc(OC)cc2)CC1	-64.3%
O=C(NN1C(=O)c2ccc3c4c(ccc(c24)C1=O)CC3)c1ccc(Br)cc1	7.7%
CC(C)c1cc(C(=O)NCc2cccnc2)no1	-11.1%
CCNC(=S)NN=C1c2ccccc2-c2ccccc21	-21.6%
O=C1C2=C(C(c3ccccc3)=NCCN2)C(c2cccc([N+](=O)[O-])c2)N1c1ccccc1 (stereo not shown)	-21.3%
COP(=S)(OC)SCN1C(=O)c2ccccc2C1=O	3.77%
CC1CCCN(S(=O)(=O)c2cc3c4c(c2)CCN4C(=O)CC3)C1 (stereo not shown)	-6.07%
CCOC(=O)N1CCC(n2c(SCC(=O)OCc3ccccc3)nc3ccsc3c2=O)CC1	-31.9%
CCN(c1ccccc1)S(=O)(=O)c1ccc(OCc2c(C)noc2C)cc1	-9.09%
O=C(CSc1nnc(-c2ccccc2F)o1)NC(=O)Cc1ccccc1	8.85%

SMILES	hERG current change (%, negative = inhibition) at 10uM
COc1cc(CNn2cn[nH]c2=S)cc(Cl)c1OCc1ccccc1	9.54%
CC(=O)C1=C(C)NC(=O)NC1/C=C/c1ccccc1 (stereo not shown)	10.9%
CC(=O)N1CCN(Cc2nc3cc(NC(=O)C4CCCCC4)ccc3n2C)CC1	-4.48%
CCCCn1c(N)c(C(=O)NCc2cccs2)c2nc3ccccc3nc21	-5.67%
Cc1cccc(C(=O)OCC(=O)Nc2ccc(N3CCCCC3)cc2)c1O	18.8%
O=C(CN1CCC(c2nc3ccccc3s2)CC1)N1CCCCC1	-33.5%
COc1cc(C2C(C(=O)/C=C/c3ccccc3)=C(O)C(=O)N2c2ccccn2)ccc1O (stereo not shown)	27.3%
CCSc1nnc(NC(=O)CCCOc2ccc(C)cc2)s1	50.2%
Cc1cc(C(=O)NNc2ccc(F)cc2F)no1	20.3%
COc1cc2c(cc1OC)-c1cc(Nc3ccc(F)cc3)nc(=O)n1CC2	-9.18%
Cc1ccc(C(c2nnnn2Cc2cccs2)N2CCN(C(=O)c3ccco3)CC2)cc1 (stereo not shown)	-62.5%
Fc1ccc(Oc2nc(-c3ccccn3)nc3ccccc23)cc1	-20%
COc1ccc(C2C(=O)N(C3CCCCC3)CC(=O)N2Cc2ccc3c(c2)OCO3)cc1 (stereo not shown)	-31.6%
COc1ccc2nc(SCC(=O)NCc3ccc(OC)c(OC)c3)[nH]c2c1	23.3%
COCCNC(=O)C(c1ccc(OC)cc1)N(C(=O)Cn1nnc2ccccc21)c1cccnc1 (stereo not shown)	16.9%
N#CCC(=O)Nc1ccc(C(=O)NCc2ccccn2)cc1	19.3%
Cc1ccc(Nc2nc(CSc3nnc(-c4cccs4)o3)cs2)cc1	10.4%
Cc1oc(/N=C/c2ccc3c(c2)OCO3)c(C#N)c1C	-2.31%
CCSc1nc(C)c(CCOc2cccc(C)c2)c(=O)[nH]1	8.09%
COC(=O)C(NC(=O)CCc1c(C)nc2c(c(C)nn2-c2ccccc2)c1C)C(C)C (stereo not shown)	-0.592%
O=C(CNC(=O)c1cccs1)c1ccc(F)cc1	15.9%
COc1ccccc1C(=O)NCCn1cc(SCC(=O)Nc2nnc(C)s2)c2ccccc21	-18%

SMILES	hERG current change (%, negative = inhibition) at 10uM
COc1cc(NC(=S)N2CCN(S(=O)(=O)c3ccc(C)cc3)CC2)cc(OC)c1	-4.7%
COCCNc1oc(/C=C/c2ccc(F)cc2)nc1S(=O)(=O)c1ccccc1	1.81%
COCCN(CCOC)S(=O)(=O)c1ccc(C(=O)Nc2nnc(CSC)o2)cc1	12.3%
COc1nnc(-c2ccc(C)c(S(N)(=O)=O)c2)c2ccccc12	4.8%
COCCN(C(=O)CSc1nnc(-c2ccccc2F)o1)c1c(N)n(CC(C)C)c(=O)[nH]c1=O	2.88%
CCOc1ccc2nc(NC(=O)C3CCCN(S(=O)(=O)c4c(C)noc4C)C3)sc2c1 (stereo not shown)	6.82%
CCOC(=O)c1sc2nc(C)nc(SCC(=O)N(C)C3CCS(=O)(=O)C3)c2c1C (stereo not shown)	-26.1%
COc1cc(C(CC(=O)N2CCOCC2)c2c(OC)cc(OC)c3ccc(=O)oc23)cc(OC)c1OC (stereo not shown)	2.51%
CC(=O)Oc1ccc(OC(C)=O)c(S(=O)(=O)c2ccc(C)c(C)c2)c1	10.9%
CSc1nn2c(C(F)(F)F)cc(C(F)(F)F)nc2c1C(N)=O	7.24%
CCc1c(C)sc(NC(=O)CCc2ccc(OC)cc2)c1C(N)=O	20.8%
CCCc1cc2c(cc1NS(=O)(=O)c1ccc(CCNC(C)=O)cc1)OCO2	-63%
CCc1ccc(OCC(O)CN2CCN(c3ccc(OC)cc3)CC2)cc1.Cl (stereo not shown)	-49.3%
COc1ccc(Nc2nccc(-c3cccc(N)c3)n2)cc1	3.8%
COc1ccccc1CNS(=O)(=O)c1ccc2c(c1)NC(=O)CS2	-1.59%
Cc1sc2ncnc(N(C)Cc3cccs3)c2c1C	-53%
O=C(Nc1ccc2nccnc2c1)c1ccco1	11.3%
Cc1cc(C)c2c(CC(=O)O)c(C)[nH]c2c1	13.1%
C/C(CC(=O)Nc1cc(Cl)ccc1Cl)=N\NC(=O)c1ccco1	-6.6%
